From a collection of fitness landscapes (doi:10.1016/j.celrep.2020.107928) come the findings set out here.

Whole data set: some 81,000 sequences, median “one-hybrid fitness for binding parS DNA” near -0.17, cut for the highest 2% near 0.51. The list shows a part of the results. Some results are limits rather than exact numbers.

To fix the notation:
B1: Caulobacter ParB omega fusion; a variant is named by its letters at X, in order, B8GW30 (parent)
chain: MESVVVGEPGMSEGRRGLGRGLSALLGEVDAAPAQAPGEQLGGSREAPIEILQRNPDQPRRTFREEDLEDLSNSIREKGVLQPILVRPSPDTAGEYQIVAGERAWRAAQRAGLKTVPIMVRELDDLAVLEIGIIENVQRADLNVLEEALSYKVLMEKFERTQENIAQTIGKSXSHVANXMRLLXLPDEVQSYLVSGELTAXHARAIAAAADPVALAKQIIEGGLSVRETEALARKAPNLSAGKSKGGRPPRVKDTDTQALESDLSSVLGLDVSIDHRGSTGTLTITYATLEQLDDLCNRLTRGI

In the experiment the parent is B1. Kind of experiment: one-hybrid fitness for binding parS DNA (scaled: cognate 1, non-cognate 0); higher = stronger binding. As to conditions: with parS DNA site. A digest of the protocol: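 Caulobacter ParB libraries with four specificity codons randomised were screened by bacterial one-hybrid selection in the E. coli USO strain, using a HIS3 reporter whose site lies 19 bp from the promoter. Selection ran for 48 hours at 37°C on M9 lacking histidine, with 0.1 mM IPTG and 5 mM 3-AT. Plasmids were Illumina-sequenced before and after selection, three replicate libraries were pooled, and variants with under 10 reads were dropped. Fitness is the log change in each variant's read ratio to wild type, rescaled against the cognate and non-cognate sites.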
On to TYAT, for which the “one-hybrid fitness for binding parS DNA” value is no more than 0.2.
For ITHC, the “one-hybrid fitness for binding parS DNA” value was no more than 0.2.
Regarding FFHR, the “one-hybrid fitness for binding parS DNA” value is no more than 0.2.
Under MSQS stands no more than 0.2; under GNQA, no more than 0.2.
The result for VYSS reads no more than 0.2; that for VEQS, no more than 0.2; that for LGWV, no more than 0.2.
The result for ERHP reads no more than 0.2.
For the variant DLYC, the “one-hybrid fitness for binding parS DNA” value was no more than 0.2.
For PDET, the “one-hybrid fitness for binding parS DNA” value is no more than 0.2.
The result for FVFS reads no more than 0.2; that for QDGW, no more than 0.2; that for RYSG, 0.984.
The result for LGQF reads no more than 0.2; that for FVDG, no more than 0.2; that for SFYC, no more than 0.2.
Under FCTF stands no more than 0.2.
As to FEGA, the “one-hybrid fitness for binding parS DNA” value is no more than 0.2.
Under LDVM stands no more than 0.2; under KKLM, no more than 0.2.
Under FLGE stands no more than 0.2; under HICV, no more than 0.2.
The result for KENL reads no more than 0.2; that for VSSN, no more than 0.2; that for HLMF, no more than 0.2.
Consider VSER, for which the “one-hybrid fitness for binding parS DNA” value is no more than 0.2.
Under EQMT stands no more than 0.2.
Under QRHS stands no more than 0.2; under QREG, no more than 0.2.
The result for QQYG reads no more than 0.2; that for MWAV, no more than 0.2.
As for RTFY, the “one-hybrid fitness for binding parS DNA” value was 0.479.
The result for RFRY reads 0.533; that for QQNL, no more than 0.2; that for CTEC, no more than 0.2.
In the case of AEYV, the “one-hybrid fitness for binding parS DNA” value is no more than 0.2.
The result for VPEI reads no more than 0.2; that for HNEF, no more than 0.2.
Under LAYM stands no more than 0.2; under LQPL, no more than 0.2.
The result for PNGR reads no more than 0.2; that for TKGR, no more than 0.2; that for INDS, no more than 0.2.
As for LHTL, the “one-hybrid fitness for binding parS DNA” value is no more than 0.2.
Regarding KTEG, the “one-hybrid fitness for binding parS DNA” value is no more than 0.2.
Under RIYG stands 1.03; under FWLS, no more than 0.2; under CAIT, no more than 0.2.
Regarding YDPS, the “one-hybrid fitness for binding parS DNA” value is no more than 0.2.
The result for RDFM reads no more than 0.2; that for DPAY, no more than 0.2; that for AFDS, no more than 0.2.
The result for AFMS reads no more than 0.2; that for MNVM, no more than 0.2.
Regarding QRNE, the “one-hybrid fitness for binding parS DNA” value is no more than 0.2.
Under QPMS stands no more than 0.2; under AVRD, no more than 0.2; under MHGS, no more than 0.2.
The result for KALC reads no more than 0.2; that for RGHM, no more than 0.2.
Turning to DSVG, the “one-hybrid fitness for binding parS DNA” value is no more than 0.2.
The result for GDYC reads no more than 0.2.
The result for PMFI reads no more than 0.2.
The result for SDKM reads no more than 0.2; that for ALIC, no more than 0.2.
Take WHTA: the “one-hybrid fitness for binding parS DNA” value was no more than 0.2.
In the case of DEQR, the “one-hybrid fitness for binding parS DNA” value is no more than 0.2.
Under QRSG stands no more than 0.2; under SYTE, no more than 0.2; under RMEE, no more than 0.2.
Under DTTA stands no more than 0.2; under YQSR, no more than 0.2; under LTPP, no more than 0.2.
Take NEMC: the “one-hybrid fitness for binding parS DNA” value was no more than 0.2.
NRED: the “one-hybrid fitness for binding parS DNA” value was no more than 0.2.
Under ARVH stands no more than 0.2.
The result for CQVA reads no more than 0.2.
Under QRHV stands no more than 0.2.
GYTH: the “one-hybrid fitness for binding parS DNA” value was no more than 0.2.
The result for QTAD reads no more than 0.2; that for TNTM, no more than 0.2; that for DATS, no more than 0.2.
On to CHYK, for which the “one-hybrid fitness for binding parS DNA” value was no more than 0.2.
As to TQNH, the “one-hybrid fitness for binding parS DNA” value was no more than 0.2.
The result for MTEG reads no more than 0.2; that for SAWQ, no more than 0.2.
Turning to KRYN, the “one-hybrid fitness for binding parS DNA” value was no more than 0.2.
The result for KCDL reads no more than 0.2; that for QWPL, no more than 0.2; that for GLMW, no more than 0.2.
Consider QAQA, for which the “one-hybrid fitness for binding parS DNA” value was no more than 0.2.
Under THHR stands no more than 0.2.
Under STHY stands no more than 0.2.
Under MHSA stands no more than 0.2; under QTSP, no more than 0.2.
Consider KAIM, for which the “one-hybrid fitness for binding parS DNA” value was no more than 0.2.
Turning to ARTK, the “one-hybrid fitness for binding parS DNA” value is no more than 0.2.
Under YIFL stands no more than 0.2; under RWCM, no more than 0.2; under TIGC, no more than 0.2.
The result for IPIV reads no more than 0.2.
The result for HLKK reads no more than 0.2; that for IPKT, no more than 0.2; that for HGFM, no more than 0.2.
Regarding LRGS, the “one-hybrid fitness for binding parS DNA” value was no more than 0.2.
The result for KPVM reads no more than 0.2; that for LCSL, no more than 0.2; that for TCGS, no more than 0.2.
The result for RHNM reads 0.291.
The result for DHPF reads no more than 0.2; that for MNST, no more than 0.2.
On to DISR, for which the “one-hybrid fitness for binding parS DNA” value is no more than 0.2.
Under QHAC stands no more than 0.2.
On to AHTH, for which the “one-hybrid fitness for binding parS DNA” value is no more than 0.2.
Under CVFT stands no more than 0.2; under DHQS, no more than 0.2.
The result for VCVI reads no more than 0.2.
Regarding DSMS, the “one-hybrid fitness for binding parS DNA” value is no more than 0.2.
GRQK: the “one-hybrid fitness for binding parS DNA” value is no more than 0.2.
Under HRGQ stands 0.215; under VTSF, no more than 0.2.
Under LPAF stands no more than 0.2.
The result for MEQS reads no more than 0.2.
Take QSVV: the “one-hybrid fitness for binding parS DNA” value was no more than 0.2.
The result for KTAW reads no more than 0.2; that for MYTA, no more than 0.2.
Under GAAM stands no more than 0.2.
Under DVMS stands no more than 0.2.
LMTT: the “one-hybrid fitness for binding parS DNA” value is no more than 0.2.
The result for EQTG reads no more than 0.2.
Consider RGCY, for which the “one-hybrid fitness for binding parS DNA” value is no more than 0.2.
Under QEDL stands no more than 0.2; under GSYC, no more than 0.2.
The result for QPDP reads no more than 0.2; that for TDPQ, no more than 0.2.
As for VPSY, the “one-hybrid fitness for binding parS DNA” value is no more than 0.2.
The result for LSRV reads no more than 0.2; that for MSVR, no more than 0.2; that for HMTG, no more than 0.2.
Under KHRH stands no more than 0.2; under HVRS, no more than 0.2; under LYDG, no more than 0.2.
As for PSCV, the “one-hybrid fitness for binding parS DNA” value was no more than 0.2.
Under MVPV stands no more than 0.2; under ACNR, no more than 0.2; under VNDS, no more than 0.2.
The result for VIVC reads no more than 0.2; that for RCFC, 1.03.
The result for VPAN reads no more than 0.2.
Consider GKYS, for which the “one-hybrid fitness for binding parS DNA” value is no more than 0.2.
RVKA: the “one-hybrid fitness for binding parS DNA” value turned out to be 0.756.
The result for QKAI reads no more than 0.2; that for SGPI, no more than 0.2.
Under YHRF stands no more than 0.2; under TYLI, no more than 0.2; under EEAM, no more than 0.2.
Under AKVR stands no more than 0.2.
With PFTW, the “one-hybrid fitness for binding parS DNA” value was no more than 0.2.
Under GCER stands no more than 0.2.
Take RLAW: the “one-hybrid fitness for binding parS DNA” value was determined as 0.232.
The result for RYED reads no more than 0.2.
The result for QTCS reads no more than 0.2.
The result for KQPC reads no more than 0.2; that for HKQC, no more than 0.2; that for YMPR, no more than 0.2.
Take NIIS: the “one-hybrid fitness for binding parS DNA” value is no more than 0.2.
Under LNNS stands no more than 0.2; under HHCG, no more than 0.2; under MMSV, no more than 0.2.
Under ADWI stands no more than 0.2; under NVTS, no more than 0.2.
Under NCRW stands no more than 0.2; under ITRV, no more than 0.2; under LHER, no more than 0.2.
Turning to NDGG, the “one-hybrid fitness for binding parS DNA” value was no more than 0.2.
Under ESVA stands no more than 0.2; under PVRF, no more than 0.2.
The result for ACTM reads no more than 0.2; that for TFKE, no more than 0.2.
Under VATA stands no more than 0.2; under QSVL, no more than 0.2; under FKSV, no more than 0.2.
As to EMNT, the “one-hybrid fitness for binding parS DNA” value was no more than 0.2.
The result for VNMT reads no more than 0.2.
The result for YRHT reads no more than 0.2; that for TIAV, no more than 0.2.
Regarding AKGC, the “one-hybrid fitness for binding parS DNA” value is no more than 0.2.
The result for GNYL reads no more than 0.2; that for LGSC, no more than 0.2.
For the variant VAVI, the “one-hybrid fitness for binding parS DNA” value was no more than 0.2.
The result for AWRL reads no more than 0.2; that for RMKT, 0.764.
Under VSLY stands no more than 0.2; under TACH, no more than 0.2.
